# The full ranking holds about 33,000 sequences; the median of “E-score (-0.5 to 0.5)” is about -0.036, and the highest 2% start at about 0.37. The list shows a part of the results.
# Biological target: T1, Yer064c (UniProt P40041)
# T1 sequence: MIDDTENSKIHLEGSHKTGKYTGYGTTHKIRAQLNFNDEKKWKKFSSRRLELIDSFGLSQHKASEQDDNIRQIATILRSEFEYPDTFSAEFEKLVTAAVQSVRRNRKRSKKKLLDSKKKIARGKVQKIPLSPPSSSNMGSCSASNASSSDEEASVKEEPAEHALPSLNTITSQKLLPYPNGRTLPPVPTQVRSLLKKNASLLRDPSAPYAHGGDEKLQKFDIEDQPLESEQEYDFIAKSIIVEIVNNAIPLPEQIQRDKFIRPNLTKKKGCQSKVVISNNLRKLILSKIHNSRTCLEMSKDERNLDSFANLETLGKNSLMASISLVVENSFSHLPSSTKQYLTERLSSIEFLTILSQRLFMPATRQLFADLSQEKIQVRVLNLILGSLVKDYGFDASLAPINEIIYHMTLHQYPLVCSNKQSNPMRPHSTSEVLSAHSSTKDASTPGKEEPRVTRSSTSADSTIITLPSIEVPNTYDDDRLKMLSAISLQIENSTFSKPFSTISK
# Assay: PBM E-score (8-mer binding enrichment) (E-score (-0.5 to 0.5)); higher = stronger / more preferred TF binding; most listed sequences are background and not binding sites
# Conditions: protein concentration: 200 nM; construct: GST-full length
# Procedure: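 Universal 'all 10-mer' protein binding microarrays (Agilent AMADID 015681) probed with GST-tagged S. cerevisiae TFs (full-length or DBD) made by in vitro transcription/translation (PURExpress), about 100-200 nM. Bound TF was detected with fluorescent anti-GST. Each ungapped 8-mer (which stands for itself and its reverse complement) is scored by the PBM enrichment score (E-score), a modified Wilcoxon-Mann-Whitney statistic from -0.5 to +0.5, computed with the Universal PBM Analysis Suite. Scale: above 0.35 generally sequence-specific binding.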
row,Sequence,PBM E-score
1,GCCCGGCA,-0.123
2,ATGGGAGG,-0.221
3,CTCAACGA,0.155
4,ATGACGCA,0.0538
5,CGGGTGTA,-0.213
6,TACAGCGA,-0.115
7,CTTGTACC,-0.169
8,GCTTTCCC,-0.143
9,AAGGTTAC,0.0184
10,ATTCAATG,0.204
11,AAATGGCT,0.1
12,ATCGTCTC,0.0303
13,ACTACTAC,0.261
14,TGCATGCA,-0.0534
15,AGCTCGTA,-0.0144
16,AGCTCACT,-0.0974
17,CCAGCCAA,-0.202
18,CGTTGCTA,0.0218
19,AGTTCGTG,-0.0415
20,AGCTATCG,-0.083
21,CGTGTTGA,0.202
22,CTTAACGA,0.247
23,CGCGGCAA,-0.203
24,CCTCGTAG,0.0591
25,GTACTTGA,0.0331

row,Sequence,PBM E-score
1,ATTTCATA,-0.0227
2,ACTACATG,0.256
3,GTCAGGCA,0.0981
4,ATCTACGG,-0.0418
5,CGGATACG,-0.0837
6,ACAAAGAG,-0.102
7,CAGTCGGC,0.122
8,CAGTGATG,-0.077
9,AAAAAATC,0.0353
10,ACTTGGAC,-0.0338
11,CCGCTGAG,0.00948
12,GGGGGGAC,-0.213
13,ACCTGCCG,-0.193
14,ACCTTCTC,-0.0398
15,ATTGCGCC,-0.0109
16,AGCGGCTA,-0.0162
17,TCAATGAA,0.196
18,AGACATAG,0.166
19,CTATGTGA,0.126
20,CGAACATA,-0.0147
21,AGAACACA,0.0627
22,AGGTTAGC,-0.296
23,GCACCTAC,-0.259
24,TAGACCAA,-0.179
25,GGATCCCA,-0.238

row,Sequence,PBM E-score
1,CAGTCAAG,0.267
2,AGGAGTAC,0.182
3,AATTTTAT,0.076
4,CACCATTC,-0.0769
5,ACCAATGA,0.137
6,AGTCCGAA,0.262
7,ATAGTTGG,0.0164
8,AATAAGAG,0.151
9,ACCGGGAC,-0.0673
10,GTGACGAA,-0.0798
11,CCCAAGGG,-0.291
12,TATGCTCA,-0.0042
13,ATGTCCAA,-0.202
14,TGCGTAAA,0.026
15,GCTGTGAA,-0.191
16,CCTTGCAA,-0.202
17,ACAGGTTA,-0.0305
18,CCCAACCA,0.0299
19,ATTCAAAC,0.219
20,ACGGGAGA,-0.123
21,AGTAGTCG,0.381
22,GTTCACCA,-0.191
23,AATTCATC,-0.162
24,AATGAGCA,-0.0702
25,AGCCCCAG,-0.108

row,Sequence,PBM E-score
1,GAAAACCC,-0.202
2,GCGAAGAC,0.126
3,CGTTCTTC,0.00303
4,CGGAAGTA,-0.153
5,GATAATAA,-0.0817
6,CGGGCATC,-0.154
7,GATATTGC,-0.325
8,CCCCACCG,-0.264
9,AGGTGCCG,-0.257
10,GCCGAAGC,-0.126
11,ATGCCCAG,-0.137
12,CGCTAAAC,0.0301
13,CAGTAAGC,-0.0247
14,CCGTAGAG,-0.209
15,AAGGCATT,-0.215
16,CCTTATTA,-0.192
17,AATTGACT,0.391
18,CCCCAGAG,-0.256
19,ACCCACTC,0.0711
20,AAAGGTGT,-0.235
21,CAGGACTC,0.344
22,CACGTACC,-0.0805
23,ATCGGCCA,-0.308
24,ACCAGCCA,-0.107
25,CGTGTCAC,0.042

row,Sequence,PBM E-score
1,GACGACGC,-0.226
2,ATACGTCA,-0.17
3,AGCGGTCG,-0.295
4,ACCTCCCA,-0.288
5,AAACTTGC,-0.178
6,ATGTTCTA,-0.248
7,GACTGACC,0.275
8,ACCCACAA,0.0505
9,AGAGCAGC,-0.168
10,CAACTCGG,-0.0505
11,TCCATTCA,0.0233
12,GGCTGCTA,-0.134
13,GCACTAGC,-0.322
14,CCGCCCTC,-0.226
15,GACCAATA,-0.0845
16,AGTGCCAT,-0.338
17,CCGTCGGA,-0.124
18,ACCATGCT,-0.138
19,CAAGTTTC,0.0574
20,CTAGCTGC,-0.0956
21,CCTGTCCG,-0.141
22,CGGGAGCC,-0.115
23,GTGCAAAC,-0.0612
24,GGAAGGCC,-0.372
25,CCTGCTTC,-0.33

row,Sequence,PBM E-score
1,CATATGCA,-0.0759
2,GTGTAGCA,-0.126
3,ACCCAAAG,-0.00336
4,CAAGAGTG,-0.108
5,AGCTTAGA,-0.00982
6,AGGTGATA,-0.16
7,CGTCAACA,-0.189
8,AGCTTACT,0.0931
9,TACGAAGA,0.154
10,ACATATTG,-0.0214
11,AAGGCAGC,-0.125
12,CCAGAAAG,0.0675
13,CACCCGGG,-0.0964
14,CAGCAACA,-0.0296
15,CCGGGCAC,-0.312
16,AGGCACCC,-0.187
17,ATCAATCG,0.193
18,CGATGGTC,-0.0168
19,CCTTGTAG,-0.14
20,ATTCGGAG,-0.0919
21,CATAATGA,0.214
22,GGGCCCGA,-0.142
23,CTCTCAAG,0.0339
24,ATTGTGCA,0.1
25,GAAGTCAC,0.433

row,Sequence,PBM E-score
1,AGCTCTTC,-0.222
2,TATTTACA,0.0598
3,CTCCCCCC,-0.162
4,ATCGACTG,0.0775
5,CTTTTCGC,-0.0382
6,TCAAAACA,0.141
7,CCTGCCAC,-0.0676
8,TCCGACAA,-0.00562
9,CGGGTGAG,0.241
10,TATAAGAA,-0.0094
11,AATTTGTC,-0.0536
12,ATGCTCTA,-0.117
13,CTTATAAG,0.0499
14,GAATGAAA,0.00846
15,CGGTGTCA,-0.0881
16,ACTAGATG,0.104
17,AAAGCTCC,-0.0457
18,AACACTCC,-0.16
19,AACGGGTG,-0.163
20,CCCCGGCG,-0.0864
21,ACCCGCTG,0.0478
22,CTCCGACC,-0.105

# From the supplement of paper PMC3334620
